Source: publication PMC3798263
Residue numbers refer to the chain shown, from its start. These are yes or no findings as the source states them, for the method shown. For some of these results: Binding seen in cells or lysates may run through a third protein. Where a sequence is shown, tags or fusion partners need not be part of it. Some entries that bind do so weakly or less than the wild type.

How the values were obtained:
[1] = molecular target: T1, HOS5 (High Osmotic Stress Gene Expression 5), full length, yeast two-hybrid fusion (Arabidopsis) (UniProt Q8W4B1); experiment: two-hybrid; library screen with HOS5 as bait
T1 sequence: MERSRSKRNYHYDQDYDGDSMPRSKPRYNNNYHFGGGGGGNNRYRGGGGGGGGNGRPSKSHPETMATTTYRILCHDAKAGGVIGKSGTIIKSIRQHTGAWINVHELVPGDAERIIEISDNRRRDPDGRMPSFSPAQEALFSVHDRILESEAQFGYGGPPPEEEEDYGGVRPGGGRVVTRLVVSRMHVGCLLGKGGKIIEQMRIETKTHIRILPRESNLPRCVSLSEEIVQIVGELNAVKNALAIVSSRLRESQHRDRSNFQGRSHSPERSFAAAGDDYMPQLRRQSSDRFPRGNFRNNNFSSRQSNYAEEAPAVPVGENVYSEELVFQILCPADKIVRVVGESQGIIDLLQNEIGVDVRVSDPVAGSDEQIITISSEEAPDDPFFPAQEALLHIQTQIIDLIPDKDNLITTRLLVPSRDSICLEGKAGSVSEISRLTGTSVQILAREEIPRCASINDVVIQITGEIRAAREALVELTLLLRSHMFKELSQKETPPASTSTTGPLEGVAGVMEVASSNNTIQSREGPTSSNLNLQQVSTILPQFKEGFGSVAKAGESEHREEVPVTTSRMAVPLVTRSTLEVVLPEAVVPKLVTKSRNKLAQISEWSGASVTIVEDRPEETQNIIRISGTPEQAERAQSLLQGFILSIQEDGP

[2] = molecular target: T2, hos5-1 mutant HOS5 (Gly233 to Ser), yeast two-hybrid fusion (Arabidopsis) (UniProt Q8W4B1); experiment: two-hybrid; pairwise in yeast strain AH109: HOS5 in pBD (pGBK), FRY2 in pAD (pGAD); deletion constructs and hos5-1 against the full-length partner; growth on -TLHA medium plus X-alpha-Gal, -TL as transformation control
T2 sequence: T1 sequence with G233S

[3] = molecular target: T1, HOS5 (High Osmotic Stress Gene Expression 5), full length, yeast two-hybrid fusion (Arabidopsis); experiment: as above
[4] = molecular target: T3, FIERY2/RNAP II CTD phosphatase-like 1 (FRY2/CPL1), full length, yeast two-hybrid fusion (Arabidopsis) (UniProt Q5YDB6); experiment: two-hybrid; library screen with FRY2 as bait; unpublished data
T3 sequence: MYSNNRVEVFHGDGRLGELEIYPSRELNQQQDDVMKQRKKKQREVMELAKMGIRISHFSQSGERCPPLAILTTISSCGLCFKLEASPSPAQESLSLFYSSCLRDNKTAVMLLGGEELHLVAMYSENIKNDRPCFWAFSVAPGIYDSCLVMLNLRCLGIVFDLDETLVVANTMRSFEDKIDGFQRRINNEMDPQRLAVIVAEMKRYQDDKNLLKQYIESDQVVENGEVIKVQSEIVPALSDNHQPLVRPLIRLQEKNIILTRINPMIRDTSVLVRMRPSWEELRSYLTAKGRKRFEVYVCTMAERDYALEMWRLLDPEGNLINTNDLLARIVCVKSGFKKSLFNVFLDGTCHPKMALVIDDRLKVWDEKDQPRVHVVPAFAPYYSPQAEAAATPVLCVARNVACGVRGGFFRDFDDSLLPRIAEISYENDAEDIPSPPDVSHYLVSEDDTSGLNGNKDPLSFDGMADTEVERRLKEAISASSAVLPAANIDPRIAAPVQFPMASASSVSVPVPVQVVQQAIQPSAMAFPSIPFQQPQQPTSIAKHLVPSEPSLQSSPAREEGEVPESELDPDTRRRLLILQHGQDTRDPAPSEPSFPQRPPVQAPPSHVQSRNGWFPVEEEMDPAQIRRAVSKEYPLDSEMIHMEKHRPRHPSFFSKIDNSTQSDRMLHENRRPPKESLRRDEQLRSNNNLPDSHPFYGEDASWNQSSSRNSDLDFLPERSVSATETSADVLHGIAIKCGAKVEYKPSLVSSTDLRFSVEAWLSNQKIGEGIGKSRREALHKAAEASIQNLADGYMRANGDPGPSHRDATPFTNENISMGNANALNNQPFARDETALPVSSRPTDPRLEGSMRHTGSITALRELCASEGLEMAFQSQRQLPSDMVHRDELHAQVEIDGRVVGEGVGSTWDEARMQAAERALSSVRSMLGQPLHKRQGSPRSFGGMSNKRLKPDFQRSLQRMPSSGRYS

[5] = molecular target: T1, HOS5 (High Osmotic Stress Gene Expression 5), full length, yeast two-hybrid fusion (Arabidopsis); experiment: two-hybrid; library screen with HOS5 as bait; hit HOS5 itself, data not shown
[6] = molecular target: T4, RS41 fused to EYFP-N or EYFP-C (BiFC) (Arabidopsis) (UniProt P92966); experiment: split reporter; BiFC with EYFP-N and EYFP-C fusions in Arabidopsis protoplasts
T4 sequence: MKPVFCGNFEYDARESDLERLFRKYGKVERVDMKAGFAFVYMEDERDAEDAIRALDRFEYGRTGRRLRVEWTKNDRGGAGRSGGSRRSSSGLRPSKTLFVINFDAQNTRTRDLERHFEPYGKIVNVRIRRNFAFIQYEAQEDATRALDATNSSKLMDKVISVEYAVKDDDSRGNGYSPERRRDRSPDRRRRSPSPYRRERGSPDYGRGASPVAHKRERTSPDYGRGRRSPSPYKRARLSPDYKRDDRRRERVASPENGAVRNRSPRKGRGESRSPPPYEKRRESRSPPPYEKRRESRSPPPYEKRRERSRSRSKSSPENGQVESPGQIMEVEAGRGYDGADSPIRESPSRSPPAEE

[7] = molecular target: T5, FRY2 fused to EYFP-N or EYFP-C (BiFC) (Arabidopsis) (UniProt Q5YDB6); experiment: as above
T5 sequence: T3 sequence

[8] = molecular target: T6, RS40 fused to EYFP-N or EYFP-C (BiFC) (Arabidopsis) (UniProt P92965); experiment: as above
T6 sequence: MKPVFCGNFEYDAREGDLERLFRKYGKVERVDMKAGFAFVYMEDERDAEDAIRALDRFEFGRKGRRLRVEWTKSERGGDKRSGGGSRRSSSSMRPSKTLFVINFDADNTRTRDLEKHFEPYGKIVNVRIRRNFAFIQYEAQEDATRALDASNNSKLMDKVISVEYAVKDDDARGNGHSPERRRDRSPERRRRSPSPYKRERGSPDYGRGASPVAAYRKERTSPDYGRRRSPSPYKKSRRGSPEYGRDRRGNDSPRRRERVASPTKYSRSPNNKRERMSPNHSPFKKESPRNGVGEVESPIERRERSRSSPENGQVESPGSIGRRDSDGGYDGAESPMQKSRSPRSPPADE

[9] = molecular target: T7, HOS5 fused to EYFP-N or EYFP-C (BiFC) (Arabidopsis) (UniProt Q8W4B1); experiment: as above
T7 sequence: T1 sequence

B1: FIERY2/RNAP II CTD phosphatase-like 1 (FRY2/CPL1), full length, yeast two-hybrid fusion (protein, UniProt Q5YDB6 1-967)
chain: T3 sequence
binding [1]: binds
binding [2]: binds
binding [3]: binds

B2: HOS5 (High Osmotic Stress Gene Expression 5), full length, yeast two-hybrid fusion (protein, UniProt Q8W4B1 1-652)
chain: T1 sequence
binding [3]: binds
binding [4]: binds
binding [5]: binds

B3: HAP5C fused to EYFP-C (BiFC negative control) (protein, UniProt Q8L4B2 1-231)
chain: MDQQDHGQSGAMNYGTNPYQTNPMSTTAATVAGGAAQPGQLAFHQIHQQQQQQQLAQQLQAFWENQFKEIEKTTDFKNHSLPLARIKKIMKADEDVRMISAEAPVVFARACEMFILELTLRSWNHTEENKRRTLQKNDIAAAVTRTDIFDFLVDIVPREDLRDEVLGSIPRGTVPEAAAAGYPYGYLPAGTAPIGNPGMVMGNPGGAYPPNPYMGQPMWQQQAPDQPDQEN
binding [6]: no binding
binding [7]: no binding
binding [8]: no binding
binding [9]: no binding
